Target: T1, IL-1R1 (Homo sapiens, UniProt P14778)
T1 sequence (P14778 18-569): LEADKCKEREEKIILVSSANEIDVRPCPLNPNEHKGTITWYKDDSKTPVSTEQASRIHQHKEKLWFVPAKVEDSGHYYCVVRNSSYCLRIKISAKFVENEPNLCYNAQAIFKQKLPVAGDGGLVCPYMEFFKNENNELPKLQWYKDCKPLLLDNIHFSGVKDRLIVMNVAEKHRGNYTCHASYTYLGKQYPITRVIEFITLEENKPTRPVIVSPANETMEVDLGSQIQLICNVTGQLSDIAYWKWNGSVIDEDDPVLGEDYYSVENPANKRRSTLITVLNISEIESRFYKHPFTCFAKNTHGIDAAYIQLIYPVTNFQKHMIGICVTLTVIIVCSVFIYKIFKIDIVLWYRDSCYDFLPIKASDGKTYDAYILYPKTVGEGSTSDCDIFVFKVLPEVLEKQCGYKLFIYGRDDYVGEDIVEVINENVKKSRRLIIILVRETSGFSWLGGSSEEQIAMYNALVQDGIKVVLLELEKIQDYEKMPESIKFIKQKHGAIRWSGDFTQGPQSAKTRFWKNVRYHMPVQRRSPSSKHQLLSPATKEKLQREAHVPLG
Assay: IL-1beta induced IL-6 release in primary human COPD lung fibroblasts
Assay type: cell-based
Details: IL-1beta 0.5 ng/ml (approx. EC80), 24 hours, ELISA

inhibition of IL-1beta induced IL-6 release: completely inhibited
inhibition of IL-1beta induced IL-6 release (listed as antibody 6): inhibited
B1: Antibody 6: human antibody that binds specifically to IL-1R1; VH SEQ ID NO: 1, VL SEQ ID NO: 5 (antibody, V domains shown)
VH: [letters of about 100 residues left out]PLYYYDEQYGVVYDAFVWGRGTMVTVSS
VL: QSVLTQPPSVSGAPGQRVTISCTGSSSNIGAGYDVHWYQQLPGTAPKLLIYGDTHRPSGVPDRFSGSKSGTSASLVIAGLQAEDEADYYCQSYDTVRLHHVFGGGTKLTVL

Source: patent US20130149312A1, “COMPOSITIONS AND METHODS FOR TREATING COPD EXACERBATION” (MCMASTER UNIVERSITY, priority 2010, published 2013)
